Values of other authors in patent US5824072A, “Biocompatible ocular implants” (Oculex Pharmaceuticals, Inc., priority 1996, dated 1998).

Test system: VX2 adenocarcinoma
Details: cited from earlier work

CC[C@]1(O)C[C@H]2CN(CCc3c([nH]c4ccccc34)[C@@](C(=O)OC)(c3cc4c(cc3OC)N(C=O)[C@H]3[C@@](O)(C(=O)OC)[C@H](OC(C)=O)[C@]5(CC)C=CCN6CC[C@]43[C@@H]65)C2)C1 [Vincristine]
in vitro IC50: 2 to 3 ng/mL
